{"source": "the supplement of paper PMC9446081", "note": "About 220 (0.56%) of roughly 39,000 compounds showed activity. The list shows a part of the results.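 Also: static incubation at 37 °C against the wild-type strain, values averaged over two biological replicates.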"}
{"test_system": "Escherichia coli K-12 BW25113", "assay": "relative growth (OD600 normalised to plate interquartile mean) (fraction); higher = less growth inhibition, active = 0.2 or less", "details": "50 µM; LB; incubation time: overnight (16-24 h)"}
{"smiles": "COc1ccc([Si](C)(C)[C@H]2[C@H](CCO)O[C@@]3(C(=O)N(Cc4cccc(N5C(=O)c6ccccc6Oc6ccccc65)c4)c4ccccc43)[C@@H]2C)cc1", "relative growth": "inactive: 1.04"}
{"smiles": "C[C@@H]1CCCCO[C@H](CN(C)C(=O)Nc2ccc3c(c2)OCO3)[C@H](C)CN([C@H](C)CO)C(=O)c2cc(NC(=O)Cc3ccccc3)ccc2O1", "relative growth": "inactive: 1"}
{"smiles": "C[C@@H]1CN([C@H](C)CO)C(=O)c2cccc(NC(=O)c3nc4ccccc4s3)c2O[C@@H]1CN(C)CC1CCCCC1", "relative growth": "inactive: 1.01"}
{"smiles": "CO[C@@H]1CN(C)C(=O)c2ccc(NC(C)=O)cc2OC[C@@H](C)N(S(=O)(=O)c2cn(C)cn2)C[C@H]1C", "relative growth": "inactive: 0.958"}
{"smiles": "C[C@@H]1CN([C@@H](C)CO)C(=O)c2cc(NC(=O)Nc3ccccc3)ccc2O[C@@H](C)CCCCO[C@@H]1CN(C)C(=O)Nc1cccc2ccccc12", "relative growth": "inactive: 1.05"}
{"smiles": "C[C@H]1CN([C@@H](C)CO)C(=O)c2cc(-c3ccc(C(=O)N(C)C)cc3)cnc2O[C@H]1CN(C)C(=O)CN(C)C", "relative growth": "inactive: 0.974"}
{"smiles": "CC(C)(C)[S@](=O)N1Cc2cc(C(=O)N3CCc4ccccc4C3)nc(-c3cccc(-c4cccnc4)c3)c2[C@@H]1CCO", "relative growth": "inactive: 1.03"}
{"smiles": "C[C@@H]1CN([C@H](C)CO)C(=O)c2cc(NC(=O)Nc3cccc4ccccc34)ccc2O[C@@H](C)CCCCO[C@@H]1CN(C)S(=O)(=O)c1ccc(Cl)cc1", "relative growth": "inactive: 1.05"}
{"smiles": "C[C@H]1CN([C@@H](C)CO)C(=O)CCCn2nncc2CO[C@@H]1CN(C)C(=O)Nc1ccc(N2CCN(C)CC2)cc1", "relative growth": "inactive: 1.02"}
{"smiles": "C[C@@H]1CN([C@H](C)CO)C(=O)c2cc(NS(=O)(=O)c3ccc(F)cc3)ccc2O[C@@H]1CN(C)S(=O)(=O)c1cccs1", "relative growth": "inactive: 1.01"}
{"smiles": "C[C@@H]1CN([C@@H](C)CO)C(=O)c2cc(C#CCN(C)C)cnc2O[C@H]1CN(C)C(=O)c1cnccn1", "relative growth": "inactive: 0.972"}
{"smiles": "C[C@@H]1CN([C@H](C)CO)C(=O)c2cc(NC(=O)c3ccncc3)ccc2O[C@@H]1CN(C)S(=O)(=O)c1ccccc1", "relative growth": "inactive: 0.959"}
{"smiles": "CC(C)NC(=O)Nc1cccc2c1O[C@H](CN(C)S(=O)(=O)c1ccc(Cl)cc1)[C@H](C)CN([C@H](C)CO)C2=O", "relative growth": "inactive: 0.968"}
{"smiles": "COc1ccc(CN(C)C[C@@H]2OCCCC[C@@H](C)Oc3ccc(NC(=O)CCC(F)(F)F)cc3C(=O)N([C@@H](C)CO)C[C@H]2C)cc1", "relative growth": "inactive: 0.977"}
{"smiles": "COc1ccc(NC(=O)N(C)C[C@@H]2OCCCC[C@H](C)Oc3ccc(NC(=O)NC(C)C)cc3C(=O)N([C@@H](C)CO)C[C@@H]2C)cc1", "relative growth": "inactive: 0.956"}
{"smiles": "C[C@@H]1CN([C@@H](C)CO)C(=O)c2cccc(NC(=O)Nc3ccc4c(c3)OCO4)c2O[C@H]1CN(C)Cc1ccc(Cl)c(Cl)c1", "relative growth": "inactive: 1.02"}
{"smiles": "Cl.Cl.NCCNCCNCCN", "relative growth": "inactive: 1.12"}
{"smiles": "C[C@H](CO)N1C[C@H](C)[C@H](CN(C)C(=O)Nc2cccc3ccccc23)Oc2ccc(NC(=O)Nc3ccccc3)cc2C1=O", "relative growth": "inactive: 1.04"}
{"smiles": "CC(C)NC(=O)N(C)C[C@H]1Oc2cc(C#Cc3ccc(F)cc3)ccc2S(=O)(=O)N([C@H](C)CO)C[C@@H]1C", "relative growth": "inactive: 1.07"}
{"smiles": "C[C@H]1CN([C@@H](C)CO)C(=O)c2cccc(NC(=O)c3ccc(-c4nccs4)cc3)c2O[C@@H]1CN(C)Cc1ccc(C(=O)O)cc1", "relative growth": "inactive: 1.01"}
{"smiles": "COc1ccc(NC(=O)Nc2ccc3c(c2)C(=O)N([C@@H](C)CO)C[C@@H](C)[C@@H](CN(C)Cc2ccncc2)OCCCC[C@H](C)O3)cc1", "relative growth": "inactive: 0.951"}
{"smiles": "CCS(=O)(=O)Nc1ccc2c(c1)CC(=O)N2", "relative growth": "inactive: 1.01"}
{"smiles": "COc1ccc(S(=O)(=O)Nc2ccc3c(c2)C(=O)N([C@@H](C)CO)C[C@H](C)[C@@H](CN(C)S(C)(=O)=O)OCCCC[C@@H](C)O3)cc1", "relative growth": "inactive: 0.986"}
{"smiles": "COc1ccc(NC(=O)N(C)C[C@@H]2Oc3ccc(NS(=O)(=O)c4cn(C)cn4)cc3C(=O)N([C@H](C)CO)C[C@@H]2C)cc1", "relative growth": "inactive: 0.96"}
{"smiles": "Cc1noc(C)c1S(=O)(=O)N(C)C[C@H]1Oc2c(NC(=O)C3CCCCC3)cccc2C(=O)N([C@@H](C)CO)C[C@H]1C", "relative growth": "inactive: 1.01"}
{"smiles": "C[C@H]1CN([C@@H](C)CO)C(=O)c2cc(NC(=O)Nc3ccc(F)cc3)ccc2O[C@H]1CN(C)Cc1ccc(Cl)c(Cl)c1", "relative growth": "inactive: 1.03"}
{"smiles": "N[C@@H](CO)c1ccccc1", "relative growth": "inactive: 1.04"}
{"smiles": "CC1C(NC(=O)C(=NOC(C)(C)C(=O)O)c2csc(N)n2)C(=O)N1S(=O)(=O)O", "note": "(configuration not stated)", "relative growth": "active: 0.0499"}
{"smiles": "COCCOC(=O)N1C(=O)[C@@]2(c3cc(C#CC4=CCCCC4)ccc31)[C@H](c1ccccc1OCCO)N1[C@H](c3ccccc3)[C@H](c3ccccc3)OC(=O)[C@H]1[C@@H]2C(=O)NC[C@H](O)c1ccccc1", "relative growth": "inactive: 1.08"}
{"smiles": "C[C@@H]1CCCCO[C@H](CN(C)C(=O)Cc2ccccc2)[C@@H](C)CN([C@@H](C)CO)C(=O)c2cc(NS(=O)(=O)c3ccc(Cl)cc3)ccc2O1", "relative growth": "inactive: 1.01"}
{"smiles": "O=C(C[C@@H]1CC[C@@H]2[C@H](COC[C@H](O)CN2S(=O)(=O)c2ccc(F)cc2)O1)NCc1ccc(Cl)c(Cl)c1", "relative growth": "inactive: 0.998"}
{"smiles": "C[C@@H]1CN([C@@H](C)CO)C(=O)c2cccc(NS(C)(=O)=O)c2O[C@@H]1CN(C)S(=O)(=O)c1ccc(F)cc1", "relative growth": "inactive: 1"}
{"smiles": "COc1cccc(C(=O)Nc2ccc3c(c2)C(=O)N(C)[C@@H]2CC[C@@H](CC(=O)NCCCN4CCOCC4)O[C@@H]2CO3)c1", "relative growth": "inactive: 1.01"}
{"smiles": "C[C@H](CO)N1C[C@H](C)[C@H](CN(C)C(=O)Nc2ccccc2F)OCCCC[C@H](C)Oc2ccc(NC(=O)C3CCCCC3)cc2C1=O", "relative growth": "inactive: 1"}
{"smiles": "C=C1C(C2(C)C=CC(=O)C(C)(C)C2CC(=O)OC)CCC2(C)C(c3ccoc3)OC(=O)C3OC132", "note": "(configuration not stated)", "relative growth": "inactive: 1.07"}
{"smiles": "C[C@@H]1CCCCO[C@H](CN(C)Cc2ccc(C(F)(F)F)cc2)[C@H](C)CN([C@H](C)CO)C(=O)c2cc(NC(=O)Nc3ccccc3)ccc2O1", "relative growth": "inactive: 1.04"}
{"smiles": "Cc1noc(C)c1NC(=O)Nc1ccc2c(c1)C(=O)N([C@@H](C)CO)C[C@H](C)[C@H](CN(C)S(=O)(=O)c1ccc(F)cc1)OCCCC[C@H](C)O2", "relative growth": "inactive: 1"}
{"smiles": "Cc1noc(C)c1NC(=O)N(C)C[C@H]1Oc2ccc(NC(=O)c3ccncc3)cc2CC(=O)N([C@@H](C)CO)C[C@H]1C", "relative growth": "inactive: 0.971"}
{"smiles": "C[N+](C)(C)CCCCNC(=O)[C@H]1C[C@H]2C(=O)NCC(=O)N2[C@H]1c1ccc(O)cc1", "relative growth": "inactive: 1.02"}
{"smiles": "C[C@H](CO)N1C[C@H](C)[C@H](CN(C)S(=O)(=O)c2ccc(F)cc2)Oc2ncc(C#CC(C)(C)O)cc2C1=O", "relative growth": "inactive: 0.891"}
{"smiles": "C[C@@H]1CCCCO[C@H](CN(C)Cc2ccc(Cl)c(Cl)c2)[C@H](C)CN([C@@H](C)CO)C(=O)c2cc(NC(=O)Cc3ccccc3)ccc2O1", "relative growth": "inactive: 1.02"}
{"smiles": "COc1ccc(NC(=O)Nc2ccc3c(c2)CC(=O)N([C@H](C)CO)C[C@H](C)[C@H](CN(C)Cc2ccc(Cl)c(Cl)c2)O3)cc1", "relative growth": "inactive: 1.04"}
{"smiles": "C[C@@H]1CN([C@H](C)CO)S(=O)(=O)c2ccc(C#C[C@@H](C)O)cc2O[C@H]1CN(C)C", "relative growth": "inactive: 0.973"}
{"smiles": "Cc1c(C)n2c3c(=O)n(C)c(=O)n(C)c3nc2n1CCN1CCOCC1", "relative growth": "inactive: 0.99"}
{"smiles": "COc1ccc(CN(C)C[C@H]2Oc3ccc(NS(=O)(=O)c4cn(C)cn4)cc3CC(=O)N([C@@H](C)CO)C[C@H]2C)cc1", "relative growth": "inactive: 0.987"}
{"smiles": "C[C@@H]1CCCCO[C@@H](CN(C)S(=O)(=O)c2cn(C)cn2)[C@@H](C)CN([C@H](C)CO)C(=O)c2cc(NS(=O)(=O)c3ccccc3)ccc2O1", "relative growth": "inactive: 0.998"}
{"smiles": "Cc1ccc(S(=O)(=O)Nc2ccc3c(c2)C(=O)N([C@@H](C)CO)C[C@@H](C)[C@H](CN(C)Cc2ccncc2)OCCCC[C@@H](C)O3)cc1", "relative growth": "inactive: 0.99"}
{"smiles": "C[C@@H]1CN([C@H](C)CO)C(=O)c2cc(NS(=O)(=O)c3ccc(F)cc3)ccc2O[C@@H](C)CCCCO[C@@H]1CN(C)C(=O)C1CCCCC1", "relative growth": "inactive: 0.993"}
{"smiles": "C[C@H]1CCCCO[C@H](CN(C)CC2CCCCC2)[C@@H](C)CN([C@@H](C)CO)C(=O)c2cc(NC(=O)Nc3ccc(F)cc3)ccc2O1", "relative growth": "inactive: 0.996"}
{"smiles": "C[C@H](CO)N1C[C@H](C)[C@H](CN(C)C)Oc2cc(C#CCN(C)C)ccc2S1(=O)=O", "relative growth": "inactive: 0.962"}
{"smiles": "Cc1noc(C)c1NC(=O)Nc1ccc2c(c1)C(=O)N([C@H](C)CO)C[C@H](C)[C@@H](CN(C)Cc1ccc(C(=O)O)cc1)OCCCC[C@@H](C)O2", "relative growth": "inactive: 0.894"}
{"smiles": "C[C@@H]1CN([C@@H](C)CO)C(=O)Cc2cc(NS(=O)(=O)c3ccc(F)cc3)ccc2O[C@@H]1CN(C)C(=O)Nc1cccc2ccccc12", "relative growth": "inactive: 1.03"}
{"smiles": "Cc1cc(SCc2ccc(F)cc2)c(C)cc1Cl", "relative growth": "inactive: 0.874"}
{"smiles": "C[C@H]1CN([C@@H](C)CO)C(=O)Cc2cc(NC(=O)Nc3cccc4ccccc34)ccc2O[C@H]1CN(C)S(=O)(=O)c1cccs1", "relative growth": "inactive: 1.01"}
{"smiles": "C[C@H]1CCCCO[C@@H](CN(C)S(=O)(=O)c2ccc(F)cc2)[C@@H](C)CN([C@@H](C)CO)C(=O)c2cc(NS(=O)(=O)c3cn(C)cn3)ccc2O1", "relative growth": "inactive: 0.997"}
{"smiles": "C[C@H](CO)N1C[C@H](C)[C@H](CN(C)C(=O)C2CCOCC2)Oc2cc(C#Cc3ccncc3)ccc2S1(=O)=O", "relative growth": "inactive: 1"}
{"smiles": "C[C@@H]1CN([C@H](C)CO)C(=O)c2cc(NC(=O)Cn3cnnn3)ccc2O[C@@H]1CN(C)CC1CC1", "relative growth": "inactive: 1.02"}
